Out of some 340,000 compounds screened, about 6,900 (2%) were called active. Cut-off read from the data, not from the text of the source: active = inhibition above about 30%; inactive = below that, where a call was filed. The entries are a selection whose mix differs from that of the whole data set. The source gives no active or inactive call for entries shown without one.
Each molecule was assayed against D(2) dopamine receptor (Homo sapiens) (UniProt P14416) (assay: HTS Assay for Allosteric Antagonists of the Human D2 Dopamine Receptor: Primary Screen for Antagonists). Details: HEK293 TREx D2 cells, calcium flux, dopamine EC80; at 10 µM; stronger effect = higher value.
Chain of UniProt P14416 (P14416 whole entry, looked up): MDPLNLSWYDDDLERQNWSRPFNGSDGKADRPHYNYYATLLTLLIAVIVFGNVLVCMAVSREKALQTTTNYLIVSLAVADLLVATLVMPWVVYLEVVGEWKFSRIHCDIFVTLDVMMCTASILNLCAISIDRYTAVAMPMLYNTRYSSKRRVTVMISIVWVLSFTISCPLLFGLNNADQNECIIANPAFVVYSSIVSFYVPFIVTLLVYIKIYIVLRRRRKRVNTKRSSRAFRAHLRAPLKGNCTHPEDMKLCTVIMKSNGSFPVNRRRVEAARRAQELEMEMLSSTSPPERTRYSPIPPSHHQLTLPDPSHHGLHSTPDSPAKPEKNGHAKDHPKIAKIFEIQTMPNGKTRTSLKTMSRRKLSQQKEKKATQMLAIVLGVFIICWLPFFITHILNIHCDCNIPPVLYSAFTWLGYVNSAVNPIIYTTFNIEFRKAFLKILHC
In short: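 Calcium mobilization kinetics were recorded at 1 s intervals in tetracycline-induced HEK293 T-REx D2 cells, first for 180 s after compound addition and then 180 s after EC80 dopamine.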
For COc1ccc2c(c1)CC(C(=O)Nc1c(C)cc(C)cc1C)CO2 (centres undefined), the inhibition was -12%.
Work on NS(=O)(=O)c1ccc(CCNC(=O)Cn2c(=O)c3cccn3c3ccc(F)cc32)cc1 yielded an inhibition of 4.63%.
In the case of Cc1nn2c(=O)cc(COC(=O)c3ccccc3NC(=O)C3CCCCC3)nc2s1, the inhibition is reported as -13.6%.
CCOc1ccc(N(CC)S(=O)(=O)N2CCCC(C(=O)NCc3ccccc3OCC)C2)cc1 (centres undefined) gave an inhibition of 2.07%.
In the case of COc1cc(-c2cc3n(C)c(C)c(CCC(=O)NC4CCC(C)CC4)c(=O)n3n2)cc(OC)c1OC (centres undefined), the inhibition is reported as 9.41%.
Work on COc1cc(C(=O)N(CCCN(C)C)c2nc3c(OC)cccc3s2)cc(OC)c1OC yielded an inhibition of -13.1%.
O=C(NC1CCCC1)c1ccc2c(c1)N(Cc1c(F)cccc1Cl)C(=O)c1ccccc1S2 gave an inhibition of -13.1%.
Cc1ccc2c(c1)-c1nc(-c3ccccc3)cc(-c3ccccc3)c1CO2 was tested, and the inhibition was 13.6%.
For OCC1(Cc2ccccc2)CCN(Cc2cc3ccccc3o2)CC1, the inhibition was active: 94.6%.
CSCCC(NS(=O)(=O)c1ccc2[nH]c(=O)c(=O)[nH]c2c1)C(=O)O (centres undefined) was tested, and the inhibition was active: 35.7%.
Work on COc1ccc(C(=O)Nc2ccc3c(c2)CCCN3S(=O)(=O)c2ccc(C)cc2)cc1 yielded an inhibition of 3%.
Molecule CCCCN(CCCC)CCn1cnc2c([nH]c3ccc(OC)cc32)c1=O has an inhibition of 21.1%.
With COc1ccc(NC(=O)c2oc3ccccc3c2NC(=O)c2cc(=O)c3ccccc3o2)cc1 the inhibition was 13.7%.
Work on COc1ccc(CNC(=O)c2ccc(-c3nc(CSc4ccccc4)c(C)o3)cc2)cc1 yielded an inhibition of 0.341%.
With CCOc1ccc(CCNc2ncnc3onc(C)c23)cc1OCC the inhibition was -12.9%.
Work on CCOC(=O)c1c(NC(=O)C(C)Oc2ccccc2F)sc(C(C)=O)c1C (centres undefined) yielded an inhibition of 11.2%.
COc1ccc(CCNC(=O)CCCCn2c(=O)c3ccccc3n(Cc3cccc(C)c3)c2=O)cc1OC gave an inhibition of -5.61%.
In the case of c1ccc(N=C(c2cccs2)N2CCOCC2)cc1, the inhibition is reported as active: 31.8%.
For CCc1ccc(NC(=O)c2ccc(CNS(=O)(=O)c3ccc4c(c3)C(C)(C)C(=O)N4C)cc2)cc1, the inhibition was -0.884%.
CCc1ccc(OCC(=O)Nc2c(C(=O)c3ccc(Br)cc3)oc3ccccc23)cc1 gave an inhibition of -0.345%.
Molecule CCC(Oc1ccccc1)C(=O)Nc1nnc(S(=O)(=O)N2CCCC2)s1 (centres undefined) has an inhibition of 3.97%.
In the case of CCOc1cccc2sc(=NC(=O)c3ccc(S(=O)(=O)N4CCOCC4)cc3)n(C)c12, the inhibition is reported as 11.4%.
For CCn1cc(C(=O)N2CCN(c3ccccc3OC)CC2)c2cc(OC)c(OC)cc2c1=O, the inhibition was -3.41%.
With Cc1ccc(-c2ocnc2C(=O)Nc2ccccc2C(=O)N2CCCC2)cc1 the inhibition was active: 57.1%.
Cc1ccc2nc3sc(C(=O)Nc4ccc(F)cc4)cc3cc2c1 was tested, and the inhibition was 9.08%.
CCOC(=O)c1cc(S(=O)(=O)N2CCN(c3cccc(C)c3)C(C)C2)[nH]n1 (centres undefined) showed an inhibition of 13.4%.
COc1ccc(N2CCN(C(=O)c3c(C)oc4ncn(CC(C)C)c(=O)c34)CC2)cc1 showed an inhibition of -11.3%.
With COC(=O)c1ccc(NC(=O)C(C)N2Cc3ccccc3C2=O)cc1 (centres undefined) the inhibition was 14.2%.
CCC1=Nc2cc(C(=O)NC3CCCC3)ccc2Sc2ccc(Cl)cc21 gave an inhibition of 6.72%.
For COc1cc(CNCCSc2nnnn2C)ccc1OCc1ccccc1, the inhibition was -11%.
Cc1ccc(CNC(=O)c2cnc(N3CCCC3)nc2C)cc1 was tested, and the inhibition was 5.11%.
With CCn1c(=O)cc(OCC(=O)NCCCN2CCN(c3cccc(Cl)c3)CC2)c2ccccc21 the inhibition was active: 78.9%.
In the case of Cc1cc(C)c2c(NC(=O)c3ccccc3Cl)c(C(=O)Nc3ccc(C)c(C)c3)sc2n1, the inhibition is reported as 5.09%.
In the case of CCc1ccccc1NC(=O)c1nnn(CC(=O)Nc2c(C)cc(C)cc2C)c1N, the inhibition is reported as 2.48%.
O=C(Cn1cccc1C(=O)c1ccccc1)NCc1ccc(Cl)cc1 gave an inhibition of 1.3%.
COc1ccc(NC(=O)CNC(=O)Cn2ccc3ccccc3c2=O)c(OC)c1 was tested, and the inhibition was 1.83%.
CCCN1CCN(CCCNC(=O)c2cc3c(=O)[nH]c4ccccc4c3s2)CC1 was tested, and the inhibition was -13.9%.
Work on CCc1ccc(NC(=O)C2CCN(c3ccc(Sc4ccc(C)cc4)nn3)CC2)cc1 yielded an inhibition of 14.4%.
In the case of CC(C)C(=O)NCCSc1c[nH]c2ccccc12, the inhibition is reported as active: 31.1%.
Work on CCc1ccc(C2=CC(c3cccc(OC)c3OC)n3c(nc4ccccc43)N2)cc1 (centres undefined) yielded an inhibition of -17.6%.
COc1ccc(CCNC(=O)Cn2c(=O)cc(C(F)(F)F)c3c(C)nn(C)c32)c(OC)c1 was tested, and the inhibition was 7.21%.
In the case of CCOc1cc(CNC(=O)c2cc(-c3ccc(Cl)s3)nc3ccccc23)ccc1OC, the inhibition is reported as 24.3%.
In the case of CC(=O)Nc1ccc(OCC(O)CN2CCN(c3cccc(Cl)c3)CC2)cc1 (centres undefined), the inhibition is reported as active: 83%.
Molecule Cc1ccc(N2CCN(S(=O)(=O)c3nnc(NC(=O)c4cccc(F)c4)s3)CC2)cc1 has an inhibition of -10.4%.
In the case of NC(=O)C(c1ccccc1)C1CCCCC1 (centres undefined), the inhibition is reported as active: 52.4%.
COCCCNc1oc(-c2ccc(COc3ccccc3C)o2)nc1C#N showed an inhibition of 0.234%.
COc1cc(OC)c(NC(=O)Cn2c(=O)nc(-c3ccccc3)c3ccccc32)cc1Cl was tested, and the inhibition was -11.5%.
For CC1=C(C(=O)Nc2cccc(F)c2)C2(CCCCCC2)OC1=O, the inhibition was 6.07%.
Work on COc1cccc(Cn2c(=O)n(-c3cc(C)cc(C)c3)c(=O)c3oc4ccccc4c32)c1 yielded an inhibition of -3.25%.
Note: 0% is about no effect.
